By IC50 is meant the dose at which the fit gives 50% viability; where the fit passes the top or lowest dose, that dose stands as a limit. AUC is the area under the same curve over the 256-fold range up to the top dose, as a fraction; values near 1 show little effect. An inferred top dose was calculated from the reported fits.

Compound in the first assay: Cn1cc(C2=C(c3cn(C4CCN(Cc5ccccn5)CC4)c4ccccc34)C(=O)NC2=O)c2ccccc21 [LY317615]
Kind of assay: Viability of human cancer cell lines after 72 h of drug (GDSC screen). Conditions: top dose inferred. The protocol:
(§1)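 Human cancer cell lines in 384-well plates, medium with 10% serum, drug for 72 h over a 256-fold dose range (nine 2-fold or five 4-fold steps up to the top dose). Adherent lines were fixed and stained with the nucleic acid dye Syto60, suspension lines read with resazurin; signal relative to control wells, capped at 0 and 100%. One two-parameter sigmoid per drug and line, fitted in a mixed model over all curves with the slope shared within a line.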
“CAL-78 (chondrosarcoma, adherent, top dose 20 µM)”: the AUC was found to be 0.986 and the IC50 (as a rule, the concentration that inhibits the measured activity by half) was > 20 µM.

Regarding H4 (glioma, adherent, top dose 20 µM), the AUC was 0.808 and the IC50 was found to be 10.2 µM.

As for “BE-13 (lymphoblastic leukaemia, suspension, top dose 20 µM)”, the AUC is 0.554 and the IC50 was found to be 1.74 µM.

On to “H-EMC-SS (chondrosarcoma, adherent, top dose 20 µM)”, for which the AUC was 0.943 and the IC50 was > 20 µM.

On to “CAL-39 (cervix, adherent, top dose 20 µM)”, for which the AUC was found to be 0.862 and the IC50 stood at 18.2 µM.

As to “TE-6 (oesophagus, adherent, top dose 20 µM)”, the AUC is 0.96 and the IC50 is > 20 µM.

Regarding “SNU-182 (liver, adherent, top dose 10.24 µM)”, the AUC is 0.83 and the IC50 came out at 6.82 µM.

Take “RPMI-8402 (T-cell lymphoblastic leukaemia, suspension, top dose 20 µM)”: the AUC stood at 0.505 and the IC50 worked out at 1.28 µM.

In the case of “MDA-MB-453 (breast, adherent, top dose 20 µM)”, the AUC was determined as 0.605 and the IC50 came out at 2.52 µM.

Consider “HCC38 (breast, adherent, top dose 20 µM)”, for which the AUC is 0.891 and the IC50 is > 20 µM.

Consider “BHT-101 (thyroid, adherent, top dose 20 µM)”, for which the AUC worked out at 0.98 and the IC50 is > 20 µM.

As to “ESO26 (oesophagus, adherent, top dose 20 µM)”, the AUC is 0.66 and the IC50 came to 3.38 µM.

For the cell line “SAS (head and neck, adherent, top dose 20 µM)”, the AUC is 0.894 and the IC50 is > 20 µM.

Turning to “HuP-T3 (pancreas, adherent, top dose 20 µM)”, the AUC came out at 0.897 and the IC50 is > 20 µM.

On to “CESS (acute myeloid leukaemia, suspension, top dose 20 µM)”, for which the AUC stood at 0.859 and the IC50 is 12.9 µM.

“MONO-MAC-6 (acute myeloid leukaemia, suspension, top dose 20 µM)”: the AUC came out at 0.726 and the IC50 was determined as 5.72 µM.

Turning to “COLO-205 (large intestine, suspension, top dose 20 µM)”, the AUC stood at 0.73 and the IC50 was found to be 5.58 µM.

In the case of “HCC2218 (breast, suspension, top dose 20 µM)”, the AUC turned out to be 0.579 and the IC50 turned out to be 2.17 µM.

Consider “SF126 (glioma, adherent, top dose 20 µM)”, for which the AUC came out at 0.984 and the IC50 is > 20 µM.

As to “MFE-319 (endometrium, adherent, top dose 20 µM)”, the AUC stood at 0.963 and the IC50 is > 20 µM.

Regarding “COR-L303 (small cell lung carcinoma, suspension, top dose 20 µM)”, the AUC is 0.8 and the IC50 turned out to be 9.27 µM.

“NCI-H526 (small cell lung carcinoma, suspension, top dose 20 µM)”: the AUC is 0.975 and the IC50 is > 20 µM.

In the case of “TGBC24TKB (biliary tract, adherent, top dose 20 µM)”, the AUC amounted to 0.93 and the IC50 was > 20 µM.

In the case of “NCI-H322M (lung adenocarcinoma, suspension, top dose 20 µM)”, the AUC amounted to 0.733 and the IC50 amounted to 6.88 µM.

On to JHH-7 (liver, adherent, top dose 20 µM), for which the AUC was 0.956 and the IC50 was > 20 µM.

For “LB2518-MEL (melanoma, adherent, top dose 20 µM)”, the AUC stood at 0.907 and the IC50 is > 20 µM.

Turning to “YAPC (pancreas, adherent, top dose 20 µM)”, the AUC turned out to be 0.891 and the IC50 was > 20 µM.

As for “TE-11 (oesophagus, adherent, top dose 20 µM)”, the AUC is 0.951 and the IC50 is > 20 µM.

On to “COLO-824 (breast, adherent, top dose 20 µM)”, for which the AUC stood at 0.941 and the IC50 was > 20 µM.

With “MDA-MB-415 (breast, adherent, top dose 20 µM)”, the AUC was 0.982 and the IC50 is > 20 µM.

As to “NCI-H2452 (mesothelioma, adherent, top dose 20 µM)”, the AUC came out at 0.984 and the IC50 is > 20 µM.

On to “OC-314 (ovary, adherent, top dose 20 µM)”, for which the AUC turned out to be 0.936 and the IC50 was > 20 µM.

Regarding “MPP-89 (mesothelioma, adherent, top dose 20 µM)”, the AUC came to 0.964 and the IC50 was > 20 µM.

As for “PCI-6A (head and neck, adherent, top dose 20 µM)”, the AUC was determined as 0.796 and the IC50 worked out at 9.17 µM.

In the case of “LB1047-RCC (kidney, adherent, top dose 20 µM)”, the AUC was 0.552 and the IC50 turned out to be 1.77 µM.

For the cell line “OVKATE (ovary, adherent, top dose 20 µM)”, the AUC amounted to 0.731 and the IC50 is 9.02 µM.

As to “8305C (thyroid, adherent, top dose 20 µM)”, the AUC was determined as 0.98 and the IC50 is > 20 µM.

For “LN-18 (glioma, adherent, top dose 20 µM)”, the AUC was 0.97 and the IC50 is > 20 µM.

Consider “IA-LM (large cell lung carcinoma, adherent, top dose 20 µM)”, for which the AUC came to 0.942 and the IC50 was > 20 µM.

Regarding “SK-UT-1 (soft tissue, adherent, top dose 20 µM)”, the AUC came to 0.987 and the IC50 is > 20 µM.

Regarding “PL18 (pancreas, adherent, top dose 20 µM)”, the AUC was determined as 0.985 and the IC50 is > 20 µM.

As to “EW-16 (Ewing sarcoma, adherent, top dose 20 µM)”, the AUC is 0.958 and the IC50 was > 20 µM.

“TE-12 (oesophagus, suspension, top dose 20 µM)”: the AUC stood at 0.899 and the IC50 is > 20 µM.

Take CS1 (bone, adherent, top dose 20 µM): the AUC amounted to 0.838 and the IC50 stood at 15.8 µM.

“KARPAS-45 (lymphoblastic leukaemia, suspension, top dose 20 µM)”: the AUC was 0.547 and the IC50 worked out at 1.64 µM.

In the case of “SK-MEL-28 (melanoma, adherent, top dose 20 µM)”, the AUC amounted to 0.919 and the IC50 was > 20 µM.

For the cell line “CAPAN-1 (pancreas, adherent, top dose 20 µM)”, the AUC was found to be 0.765 and the 50% inhibitory concentration (IC50) was 8.08 µM.

As to “SR (lymphoid neoplasm, suspension, top dose 20 µM)”, the AUC came out at 0.799 and the IC50 is 8.48 µM.

“DND-41 (T-cell leukaemia, suspension, top dose 20 µM)”: the AUC is 0.576 and the IC50 was determined as 1.96 µM.

Regarding “HCC2157 (breast, suspension, top dose 20 µM)”, the AUC was determined as 0.967 and the IC50 was > 20 µM.

“SNU-1040 (large intestine, adherent, top dose 20 µM)”: the AUC amounted to 0.401 and the IC50 amounted to 0.607 µM.

Take “A427 (non-small cell lung carcinoma, adherent, top dose 20 µM)”: the AUC turned out to be 0.938 and the IC50 was > 20 µM.

As to “SW954 (urogenital system, adherent, top dose 20 µM)”, the AUC was determined as 0.891 and the IC50 is > 20 µM.

Turning to “MSTO-211H (mesothelioma, adherent, top dose 20 µM)”, the AUC stood at 0.991 and the IC50 is > 20 µM.

Compound in another assay: CCc1c2c(nc3ccc(O)cc13)-c1cc3c(c(=O)n1C2)COC(=O)[C@]3(O)CC [SN-38]
The description is as above. As to conditions: top dose 0.05 µM; top dose inferred. The protocol:
as §1
Take SK-MEL-28 (melanoma, adherent): the AUC was 0.915 and the IC50 is > 0.05 µM.

With LB996-RCC (kidney, adherent), the AUC amounted to 0.541 and the IC50 is 0.00411 µM.

Regarding T-24 (bladder, adherent), the AUC came to 0.448 and the IC50 worked out at 0.00227 µM.

For IM-95 (stomach, adherent), the AUC was found to be 0.928 and the IC50 is > 0.05 µM.

As to VM-CUB-1 (bladder, adherent), the AUC came to 0.33 and the IC50 was 0.00107 µM.

In the case of COLO-205 (large intestine, suspension), the AUC came out at 0.951 and the IC50 is > 0.05 µM.

On to HPAC (pancreas, adherent), for which the AUC came to 0.933 and the IC50 is > 0.05 µM.

As to “NCI-H1650 (lung adenocarcinoma, adherent)”, the AUC stood at 0.863 and the IC50 was > 0.05 µM.

For Hs940-T (melanoma, adherent), the AUC stood at 0.757 and the IC50 came out at 0.0207 µM.

For HCC1599 (breast, suspension), the AUC amounted to 0.441 and the IC50 is 0.0021 µM.

Consider BCPAP (thyroid, adherent), for which the AUC turned out to be 0.599 and the IC50 worked out at 0.00567 µM.

As for “NCI-H2228 (lung adenocarcinoma, adherent)”, the AUC was determined as 0.781 and the IC50 is 0.0331 µM.

On to HCE-4 (oesophagus, adherent), for which the AUC stood at 0.377 and the IC50 is 0.00151 µM.

As to HSC-3 (head and neck, adherent), the AUC stood at 0.398 and the half-inhibitory concentration (IC50) amounted to 0.00171 µM.

These data come from the supplement of paper PMC4967469.
